According to ChEMBL document CHEMBL4888484, “Replenishing the malaria drug discovery pipeline: Screening and hit evaluation of the MMV Hit Generation Library 1 (HGL1) against asexual blood stage Plasmodium falciparum ,using a nano luciferase reporter read-out” (2022):
The whole screen tested about 150,000 compounds, of which about 540 (0.36%) showed an effect of 50% or more. The list shows a part of the results.

What follows are compounds tested on Plasmodium falciparum (assay: Primary screen in NF54 nanoGlo assay, in single point, at 2uM, 72h; a lower Z score goes with more inhibition). Details: timepoint 72 hour.
Format: functional, Erythrocyte
For `CO[C@@H](C)CS(=O)(=O)Nc1csnc1-c1ccccc1`, the “% Inhibition” value was -4% and the Z score was 0.63.
With `Cc1ncc(CO)c(CN(Cc2ccco2)C(C)(C)CO)c1O` the “% Inhibition” value was -3% and the Z score was 0.29.
For `O=C(CN1C(=O)c2cc(Cl)c(Cl)cc2C1=O)NC1CCCCC1`, the “% Inhibition” value was -6% and the Z score was 0.83.
In the case of `c1cncc(-c2n[nH]cc2CNCCc2ccsc2)c1`, the “% Inhibition” value is reported as -1% and the Z score is reported as 0.14.
With `O=C(CC[C@@H]1NC(=O)c2ccccc2NC1=O)NCc1nc(-c2ccncc2)no1` the “% Inhibition” value was -9% and the Z score was 1.1.
`CC(NC(=O)[C@@H]1CCC(=O)N1)c1cc(Cl)cc(Cl)c1F` (stereo partly specified) was tested, and the “% Inhibition” value was 2% and the Z score was -0.25.
For `CCc1ccc(CN2CC[C@H](CNC(=O)N3CCOCC3)[C@@H](O)C2)nc1`, the “% Inhibition” value was -6% and the Z score was 1.2.
In the case of `O=C(O)c1nn(CCCc2ccccc2)c2c1CN(C(=O)c1cccnc1)CC2`, the “% Inhibition” value is reported as -9% and the Z score is reported as 1.3.
With `CC(C)Cc1nsc(N2CCO[C@H](c3cccs3)C2)n1` the “% Inhibition” value was 7% and the Z score was -1.09.
In the case of `Cc1sc(C)c(S(=O)(=O)N2CCN(c3ccccc3)CC2)c1-c1cc(C(F)(F)F)on1`, the “% Inhibition” value is reported as -10% and the Z score is reported as 1.63.
In the case of `O=C(Nc1nc(-c2ccc3c(c2)OCO3)cs1)c1ccc(-n2cnnn2)cc1`, the “% Inhibition” value is reported as -16% and the Z score is reported as 2.99.
`Cc1cnn(CCCNC(=O)N(C)[C@@H](C)c2cc(-c3ccccc3)[nH]n2)c1` was tested, and the “% Inhibition” value was -4% and the Z score was 0.67.
In the case of `CNC(=O)c1cc(S(=O)(=O)c2ccc3[nH]c(Nc4cccc(C(F)(F)F)c4)nc3c2)ccn1`, the “% Inhibition” value is reported as 0% and the Z score is reported as 0.05.
In the case of `O=C1OCC2(CCN(C/C=C/c3ccc(F)cc3)CC2)O1`, the “% Inhibition” value is reported as -2% and the Z score is reported as 0.27.
With `COc1cccc(NC(=O)CN2CCC[C@H](Cc3noc(C)n3)C2)c1` the “% Inhibition” value was -15% and the Z score was 1.77.
With `CC1(C(=O)NC2CC(F)(F)C2)COC1` the “% Inhibition” value was -11% and the Z score was 1.34.
`CN1CCN(C(=O)CC[C@@H]2NC(=O)N(c3cccc4ccccc34)C2=O)CC1` was tested, and the “% Inhibition” value was 5% and the Z score was -0.58.
For `O=C1NC(=O)C2(CCN(C(=O)c3cccs3)CC2)N1`, the “% Inhibition” value was -10% and the Z score was 1.55.
In the case of `CCC(=O)N1CC[C@H](NC(=O)c2cc(COC)on2)C1`, the “% Inhibition” value is reported as 2% and the Z score is reported as -0.3.
In the case of `Cc1ccc(C(C)C)c(OC(=O)Cn2c(=O)sc3cccc(Cl)c32)c1`, the “% Inhibition” value is reported as -11% and the Z score is reported as 1.53.
In the case of `Cc1cccc(C(=O)N2CCC[C@H]2c2nn(C)c(=O)n2Cc2ccccc2)c1`, the “% Inhibition” value is reported as 0% and the Z score is reported as -0.09.
In the case of `CCNC(=O)[C@H]1Cc2ccccc2CN1C(=O)c1ccccc1OC(F)F`, the “% Inhibition” value is reported as -3% and the Z score is reported as 0.41.
With `CCN(CC)CC(=O)N[C@@H](C)c1ccccc1` the “% Inhibition” value was -7% and the Z score was 1.29.
For `CCc1ccc(Nc2nc3ccccc3c(=O)n2-c2cccc(C)c2C)cc1`, the “% Inhibition” value was -13% and the Z score was 2.24.
`Cc1cc(C(F)(F)F)nc(N[C@H]2CCCC[C@H]2n2cc(CO)nn2)n1` was tested, and the “% Inhibition” value was 11% and the Z score was -1.41.
In the case of `Cc1cc(C)n([C@@H](C)CNC(=O)Nc2cn(C)nn2)n1`, the “% Inhibition” value is reported as -8% and the Z score is reported as 0.91.
With `CCCc1cc(C(=O)N(C)CC(CC)(CC)CO)n(C)n1` the “% Inhibition” value was 0% and the Z score was 0.04.
With `CCOCc1nc([C@H](C)n2nc(C)cc2C)n(C2CCN(C)CC2)n1` the “% Inhibition” value was 15% and the Z score was -2.1.
For `O=C(NCCc1ccco1)c1[nH]nc2c1COc1ccccc1-2`, the “% Inhibition” value was -10% and the Z score was 1.81.
With `CC(C)c1nnc(CN(C)CCCc2nccn2C)o1` the “% Inhibition” value was 3% and the Z score was -0.53.
For `CC[C@@H](Cc1ccc(C(F)(F)F)cc1)C(=O)NCc1ccnn1C`, the “% Inhibition” value was -17% and the Z score was 1.67.
`CC(=O)Nc1cccc(NC(=O)c2cc3c(s2)CCCCCC3)c1` was tested, and the “% Inhibition” value was -8% and the Z score was 0.66.
With `Cc1cc(CNC(=O)[C@@H]2[C@@H](c3ccccc3)N(C)C(=O)[C@@H]2O)no1` the “% Inhibition” value was -5% and the Z score was 0.46.
With `O=C(NCc1cccnc1)c1ccc2c(c1)NC(=O)c1ccccc1N2` the “% Inhibition” value was -1% and the Z score was 0.24.
`O=C1NC2(CCO1)CN(C(=O)CC1CC3CCC1C3)C2` (stereo unspecified) was tested, and the “% Inhibition” value was -18% and the Z score was 2.36.
With `Cc1ncc(CN[C@H]2CCCC[C@@H]2F)cn1` the “% Inhibition” value was -1% and the Z score was 0.15.
`CCc1cc(C(=O)NCc2cccnc2Oc2ccc(F)c(F)c2)[nH]n1` was tested, and the “% Inhibition” value was -10% and the Z score was 1.25.
In the case of `Cc1ccoc1CN(C)C(=O)c1cn2c(n1)CCC2`, the “% Inhibition” value is reported as -6% and the Z score is reported as 0.81.
In the case of `COc1ccc(N2CCCC2=N)c(OC)c1`, the “% Inhibition” value is reported as 0% and the Z score is reported as 0.05.
With `Cc1ccc(-c2nnc(NC(=O)c3cnccn3)[nH]2)s1` the “% Inhibition” value was -13% and the Z score was 1.48.
With `C[C@@H](CN1CCOCC1)NS(=O)(=O)C1CN(C(=O)C2CCCC2)C1` the “% Inhibition” value was -2% and the Z score was 0.2.
For `C[C@@H](Cc1cccnc1)NC(=O)c1ccc2nc(C3CC3)oc2c1`, the “% Inhibition” value was -5% and the Z score was 0.87.
In the case of `C[C@@H](CS(C)(=O)=O)N(C)C(=O)c1ccc(Cl)c(Cl)c1`, the “% Inhibition” value is reported as -7% and the Z score is reported as 1.49.
`COc1ccccc1OCC(=O)N1CCC2(CC1)CC2(F)F` was tested, and the “% Inhibition” value was -11% and the Z score was 1.84.
With `O=C(Nc1nncs1)c1cc2c(s1)CCCCC2` the “% Inhibition” value was -13% and the Z score was 1.86.
`CCc1cc(-c2n[nH]c(C)c2-c2cc3c(cc2C)OCCO3)c(O)cc1OC` was tested, and the “% Inhibition” value was -2% and the Z score was 0.29.
For `Cc1cc(OCC(=O)N(C2CCCC2)[C@H]2CCS(=O)(=O)C2)ccc1Cl`, the “% Inhibition” value was 11% and the Z score was -1.42.
With `O=C(c1ccc2ncsc2c1)N1CC[C@H](c2ccc3c(c2)CCO3)C1` the “% Inhibition” value was -11% and the Z score was 1.26.
For `O[C@H]1C[C@H](NCc2cc(Cl)c3c(c2)OCO3)C12CCOCC2`, the “% Inhibition” value was -8% and the Z score was 1.59.
With `Cc1ccsc1CNC(=O)N(C)Cc1c(C)noc1C` the “% Inhibition” value was 0% and the Z score was 0.01.
In the case of `O=C(NCC1OCCc2sccc21)C1CCCN1c1ncnc2ccccc12` (stereo unspecified), the “% Inhibition” value is reported as -3% and the Z score is reported as 0.41.
For `COCCN1CC(=O)N[C@H]2CN(C(=O)c3cc(CC(C)C)on3)C[C@@H]2OCc2cccc(c2)Oc2cncc(c2)C1=O`, the “% Inhibition” value was -4% and the Z score was 0.7.
With `O=c1[nH]c(-c2cnccn2)nc2cc(F)c(Br)cc12` the “% Inhibition” value was -13% and the Z score was 1.81.
`Cc1nc(CC(=O)N[C@@H](C)CCc2ccccc2)[nH]c1Cc1ccc(O)cc1` was tested, and the “% Inhibition” value was -2% and the Z score was 0.22.
In the case of `COCCN1C(=O)c2cccn2C[C@@H]1CNC(=O)CCC1CCCC1`, the “% Inhibition” value is reported as -2% and the Z score is reported as 0.3.
In the case of `CC(C)c1ccc(NC(=O)c2cc3n(n2)CCN(Cc2ccc(F)cc2)C3=O)cc1`, the “% Inhibition” value is reported as -4% and the Z score is reported as 0.61.
For `Cn1nccc1-c1cnn([C@@H]2CCCCO2)c1`, the “% Inhibition” value was -7% and the Z score was 1.09.
`Cc1cc(C)cc(C(=O)N2C[C@@H]3CC[C@H]2CN(C(=O)C2CCC2)C3)c1` was tested, and the “% Inhibition” value was -8% and the Z score was 1.34.
For `C=CCN(Cc1ccc(NC(C)=O)cc1)Cc1ccco1`, the “% Inhibition” value was -15% and the Z score was 2.24.
With `FC(F)c1cc(-c2ccco2)nc(N2CCNCC2)n1` the “% Inhibition” value was -27% and the Z score was 3.2.
For `Nc1ncc(Cl)cc1S(=O)(=O)NCCC(F)(F)F`, the “% Inhibition” value was 13% and the Z score was -1.73.
With `CC(=O)N1CCCC1C(=O)NCC1CC2c3ccccc3C1c1ccccc12` (stereo unspecified) the “% Inhibition” value was 2% and the Z score was -0.29.
`CCc1cc(N2CCN(C(=O)c3cnc(CC)nc3)CC2)ncn1` was tested, and the “% Inhibition” value was -18% and the Z score was 2.36.
In the case of `Cc1cc(C)c(-c2nc([C@H]3CCOC3)no2)c(C)c1`, the “% Inhibition” value is reported as 0% and the Z score is reported as 0.09.
In the case of `Cc1ccc(N[C@@H](C)C(=O)NC(N)=O)c(OCC(=O)N(C)C)c1`, the “% Inhibition” value is reported as 22% and the Z score is reported as -2.79.
With `C[C@@H](C(=O)O)c1cccc(NC(=O)c2ccc3c(c2)CCOC3)c1` the “% Inhibition” value was 4% and the Z score was -0.71.
In the case of `c1ccc(Cn2ccnc2[C@H]2CCCN(c3ncnc4c3CCC4)C2)cc1`, the “% Inhibition” value is reported as -2% and the Z score is reported as 0.38.
For `Cn1cnnc1C[C@H]1CCCN(S(=O)(=O)c2cccc3nsnc23)C1`, the “% Inhibition” value was -14% and the Z score was 1.82.
With `C[C@@H](C(=O)Nc1ccc2c(c1)OCCO2)N1CCN(Cc2ccc(OC(F)(F)F)cc2)CC1` the “% Inhibition” value was -11% and the Z score was 1.91.
For `CCNc1ncc(C(=O)N2[C@@H]3CC[C@H]2C[C@@H](c2ccc(F)c(C)c2)C3)cn1`, the “% Inhibition” value was -13% and the Z score was 2.17.
For `CC(=O)N[C@@H](CC(C)C)C(=O)N1CCN(Cc2cccc(-c3noc(CC(C)C)n3)c2)CC1`, the “% Inhibition” value was -7% and the Z score was 0.69.
With `Cc1cc(C)nc([C@@H](C#N)C(=O)c2ccnc(OCC(F)F)c2)n1` the “% Inhibition” value was 32% and the Z score was -4.26.
With `Cc1c(F)cccc1C(=O)N[C@H]1[C@@H]2CCO[C@@H]2[C@@H]1C1CCCC1` the “% Inhibition” value was -8% and the Z score was 0.83.
With `O=S(=O)(Cc1noc(C[C@@H]2C[C@H]2c2ccccc2)n1)NC1CC1` the “% Inhibition” value was 2% and the Z score was -0.24.
`Cn1nc2n(c1=O)C[C@@H](C(=O)N(Cc1ccccn1)C1CCCCC1)CC2` was tested, and the “% Inhibition” value was 0% and the Z score was 0.1.
With `CN(CCOc1ccccc1Cl)CC(=O)N(C)Cc1ccco1` the “% Inhibition” value was -9% and the Z score was 1.72.
`Cc1cnn(-c2cc(-c3cnn(CC(=O)Nc4cc(C)nn4C)c3)ncn2)c1` was tested, and the “% Inhibition” value was -8% and the Z score was 1.46.
In the case of `COCCc1ncc(-c2c(-c3ccccc3)ncn2CC2=CCCCC2)cn1`, the “% Inhibition” value is reported as -13% and the Z score is reported as 1.27.
With `CCCNC(=O)C1CCN(C(=O)[C@@H]2COC(=O)N2)CC1` the “% Inhibition” value was -44% and the Z score was 5.19.
With `O=C1C[C@H]2CC[C@@H](CN1)N2Cc1cccc(OCCO)c1` the “% Inhibition” value was -14% and the Z score was 2.7.
With `CCc1nn(C)cc1NC(=O)NC[C@H]1CN(C)C[C@@H]1c1ccccc1` the “% Inhibition” value was 4% and the Z score was -0.61.
With `O=C(Nc1ccncc1)c1cc2c(F)cccc2s1` the “% Inhibition” value was -11% and the Z score was 1.17.
For `OCCCn1nc(C2(c3ccccc3)CC2)nc1CC1CCCC1`, the “% Inhibition” value was 0% and the Z score was -0.05.
